What all share (experiment): Primary Screen for Target Class Profiling of Small Molecule Inhibitors of Methyltransferases
Experiment [1] deals with Glycine N-methyltransferase (Homo sapiens) (UniProt Q14749). Conditions: purified enzyme, MTase-Glo SAH luminescence; measured here: GNMT inhibition; at 40 µM; stronger effect = lower value. An outline of the steps: (§1)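 Each enzyme was reacted with SAM and its substrate, with compounds tested once at 40 uM; SAH formed was read by MTase-Glo luminescence.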
Experiment [2] has as its target Guanidinoacetate N-methyltransferase (Homo sapiens) (UniProt Q14353). To be noted: purified enzyme, MTase-Glo SAH luminescence; measured here: GAMT inhibition; at 40 µM; stronger effect = lower value. An outline of the steps:
as §1

Experiment [3] deals with Histamine N-methyltransferase (Homo sapiens) (UniProt P50135). Conditions: purified enzyme, MTase-Glo SAH luminescence; measured here: HNMT inhibition; at 40 µM; stronger effect = lower value. An outline of the steps: as §1
Experiment [4] deals with Nicotinamide N-methyltransferase (Homo sapiens) (UniProt P40261). To be noted: purified enzyme, MTase-Glo SAH luminescence; measured here: NNMT inhibition; at 40 µM; stronger effect = lower value. An outline of the steps:
as §1

In experiment [5] the target is Phenylethanolamine N-methyltransferase (Homo sapiens) (UniProt P11086). To be noted: purified enzyme, MTase-Glo SAH luminescence; measured here: PNMT inhibition; at 40 µM; stronger effect = lower value. An outline of the steps:
as §1

SMILES strings stand for the structures. Several values for one entry are separate records, joined by “and”; a condition that tells them apart may be missing. Equal values may be shown once. The list shows a part of the results. These are further read-outs of the screen, such as a control signal, another cell line or another target. No call is given for them.
% is set by controls: 0 for no effect and ±100 for the full control effect.

As to `CC(=O)c1c(OCCN2CCCCC2)c(OCCC(C)c2ccc(F)cc2)c2oc(C)nc2c1C` (stereo not given), the activity change, negative = inhibition in experiment [1] was -1.76%; in experiment [2], 5.2%; in experiment [3], -28.4%; in experiment [4], -30%; in experiment [5] it was -6.84%.
Consider `NC(=O)C1CCN(c2nc3c(S(=O)(=O)c4ccccc4)nnn3c3ccccc23)CC1`, for which the activity change, negative = inhibition in experiment [1] was -8.03%; in experiment [2] it was -2.88%; in experiment [3] it was 1.31%; in experiment [4] it was -7.03%; in experiment [5], -5.54%.
Regarding `CC(C)=CCC(O)[C@](C)(O)C1[C@H](O)C[C@@]2(C)C3CC=C4C(C[C@H](O)[C@@H](O[C@@H]5O[C@H](CO)[C@@H](O)[C@H](O)[C@H]5O)C4(C)C)[C@]3(C)C(=O)C[C@]12C` (stereo not given in full), the activity change, negative = inhibition in experiment [1] is 4.14%; in experiment [2] it was 5.83%; in experiment [3], 9.29%; in experiment [4] it was -7.96%; in experiment [5], 6.94%.
Taken in the same sequence, the figures for `C/C1=C/CCC2=CC(OC2=O)C(C)(C)/C=C/C1=O` (stereo not given) were -3.13%, -3.93%, 8.3%, -14.4% and -9.73%.
Regarding `C[C@@H](Oc1cc(-c2cnn(C3CCNCC3)c2)cnc1N)c1c(Cl)ccc(F)c1Cl`, the activity change, negative = inhibition in experiment [1] was -36.2% and -57.3% and -28.5%; in experiment [2] it was -8.99% and -31.7%; in experiment [3] it was -59.7% and -64.1% and -25.9%; in experiment [4], -70.4% and -73.3% and -31.9%; in experiment [5] it was -29% and -54.9% and 4.43%.
In the case of `O=c1c2ccccc2n2c(=O)n(Cc3ccccc3F)nc2n1Cc1ccc(F)cc1`, the activity change, negative = inhibition in experiment [1] was determined as 7.67%; in experiment [2] it was 0.728%; in experiment [3] it was 11.6%; in experiment [4], 0.611%; in experiment [5], 5.93%.
For the compound `CCOc1ccc(C(=O)Cn2nc3n(CC(C)C)c(=O)c4ccccc4n3c2=O)cc1`, the activity change, negative = inhibition in experiment [1] was 2.64%; in experiment [2], 5.66%; in experiment [3], 6.48%; in experiment [4] it was -3.72%; in experiment [5], 2.18%.
With `N[C@@H](CCNCc1ccc(Cl)cc1)C(=O)N1CCCCC1`, the activity change, negative = inhibition is 4.76% in experiment [1]; 7.75% in experiment [2]; 10.8% in experiment [3]; -7.7% in experiment [4]; 5.56% in experiment [5].
With `COC(=O)C(Cc1c[nH]c2ccccc12)NC(=O)c1ccccc1Br` (stereo not given), the activity change, negative = inhibition in experiment [1] was -0.128%; in experiment [2], 1.15%; in experiment [3], -30.2%; in experiment [4] it was 7.85%; in experiment [5], 0.832%.
For `CC1Oc2ccc(NC(=O)c3cccs3)cc2CN(CCOc2ccccc2)C1=O` (stereo not given), the activity change, negative = inhibition was -6.69% in experiment [1]; -6.69% in experiment [2]; -1.83% in experiment [3]; -7.91% in experiment [4]; -2.49% in experiment [5].
For the compound `COc1cccc(C(=O)N2CC(=O)N(Cc3ccc(Cl)cc3)CC(O)C2)c1` (stereo not given), the activity change, negative = inhibition in experiment [1] was -0.654%; in experiment [2], 1.31%; in experiment [3], 2.48%; in experiment [4], -4.39%; in experiment [5], -6.24%.
On to `CC1(C(=O)NC2CCCC2)Cn2c(ccc2-c2ccco2)C(=O)N1CCCN1CCOCC1` (stereo not given), for which the activity change, negative = inhibition in experiment [1] was found to be 5.26%; in experiment [2], 2.36%; in experiment [3], 7.77%; in experiment [4], 13.6%; in experiment [5], 0.976%.
As for `O=c1c2ccccc2n2c(-c3cccc(F)c3)nnc2n1Cc1ccc(F)cc1`, the activity change, negative = inhibition in experiment [1] is -5.64%; in experiment [2], 2.82%; in experiment [3], 3.65%; in experiment [4], 2.07%; in experiment [5], -1.05%.
Turning to `COc1ccc(N2C(=O)c3ccc(-c4ccco4)n3CC2(C)C(=O)NC2CCCC2)cc1OC` (stereo not given), the activity change, negative = inhibition was 0.677% in experiment [1]; 0% in experiment [2]; 9.96% in experiment [3]; 7.9% in experiment [4]; 3.02% in experiment [5].
In the case of `N#Cc1ccccc1CN1CCN(Cc2ccccc2)CC(O)C1` (stereo not given), the activity change, negative = inhibition in experiment [1] was -2.82%; in experiment [2], -0.331%; in experiment [3], -3.81%; in experiment [4], -5.48%; in experiment [5] it was 3.71%.
For `CC1=NOC(C(=O)N2CCCn3nc(C(=O)NCCN(C)C)cc3C2)C1` (stereo not given) the same measures were 0.756%, -1.6%, 0.862%, 3.45% and 0.703%.
For `CSc1ncc(CN2CCC(n3nccc3NC(=O)Cc3ccccc3)CC2)cn1` the same measures were -0.737%, -0.567%, 1.12%, -5.71% and 15.6%.
`CCC1c2ccc(C)n2CCN1C(=O)Nc1cccc(SC)c1` (stereo not given): the activity change, negative = inhibition is -9.6% in experiment [1]; 1.63% in experiment [2]; -12.5% in experiment [3]; -17.2% in experiment [4]; -13.1% in experiment [5].
Regarding `N#Cc1cccc(C(=O)Nc2cc(-c3ccccc3)nn2-c2ccccc2)c1`, the activity change, negative = inhibition is -0.901% in experiment [1]; -3.48% in experiment [2]; 6.7% in experiment [3]; -17.4% in experiment [4]; -1.83% in experiment [5].
Taken in the same sequence, the figures for `CCn1ccc(C(=O)N2CCCn3ccnc3C2c2cnn(C)c2)n1` (stereo not given) were -1.25%, -3.1%, 1.76%, -0.189% and 9.85%.
Turning to `CCC(C)NC(=O)c1ccc2c(=O)n(CC(C)C)c3nn(CC(=O)c4cc(C)ccc4C)c(=O)n3c2c1` (stereo not given), the activity change, negative = inhibition in experiment [1] is -2.64%; in experiment [2], -0.566%; in experiment [3], -0.118%; in experiment [4] it was -6.56%; in experiment [5], -2.09%.
With `Cc1ccc(C(=O)N(CCCN)C(c2oc3cc(Cl)ccc3c(=O)c2Cc2ccccc2)C(C)C)cc1` (stereo not given), the activity change, negative = inhibition in experiment [1] was -1.09%; in experiment [2] it was 10.1%; in experiment [3], 0.43%; in experiment [4] it was -29.9%; in experiment [5], 0.034%.
For `C[S+](=O)([O-])N1CCn2c(nnc2-c2ccccc2)C1` the same measures were -3.03%, -2.04%, -0.699%, -5.48% and -4.27%.
Consider `Cc1noc(C)c1-c1cc2cc(C(C)C)oc2c(-c2ccc(CO)cc2)n1`, for which the activity change, negative = inhibition in experiment [1] is -9.88%; in experiment [2] it was -1.68%; in experiment [3] it was -8.79%; in experiment [4], -27.2%; in experiment [5], -8%.
For `CCOCCCNC(=O)C1c2c(n(C)c3ccccc23)SCC(=O)N1c1ccc(C)c(Cl)c1` (stereo not given) the same measures were 6.95%, 0%, 4.88%, -3.12% and 7.62%.
With `Cc1cc2cc(-c3c(C)noc3C)nc(N3CCN(c4ccccn4)CC3)c2o1`, the activity change, negative = inhibition in experiment [1] is -10.5%; in experiment [2] it was -8.28%; in experiment [3], -9.72%; in experiment [4] it was -11.2%; in experiment [5] it was 0.745%.
Taken in the same sequence, the figures for `Cc1c(CN2CCN(S(C)(=O)=O)CC2)sc2c(N3CCOCC3)nc(-c3cnc(N)nc3)nc12` were -50.1%, 3.22%, -3.65%, -21.2% and -16.2%.
Taken in the same sequence, the figures for `CC1CCC(NC(=O)C2(C)Cn3c(cc4sccc43)C(=O)N2Cc2ccc(Cl)cc2)CC1` (stereo not given) were 2.67%, 0%, 6.55%, -4.25% and 0.432%.

The record behind these values is PubChem BioAssay AID1745853 (National Center for Advancing Translational Sciences (NCATS), 2022).
